Assay results: publication PMC4336329 (PLoS ONE, 2015)
Screen size: about 310,000 compounds; about 2,200 (0.71%) showed an effect of 50% or more. Effects have a minus sign here. The list shows a part of the results.

The molecules below were run against human ether-à-go-go-related gene (hERG) potassium channel (human, UniProt Q12809) (assay: primary screen, population patch clamp on CHO cells stably expressing hERG).
human ether-à-go-go-related gene (hERG) potassium channel, sequence (Q12809 whole entry, looked up): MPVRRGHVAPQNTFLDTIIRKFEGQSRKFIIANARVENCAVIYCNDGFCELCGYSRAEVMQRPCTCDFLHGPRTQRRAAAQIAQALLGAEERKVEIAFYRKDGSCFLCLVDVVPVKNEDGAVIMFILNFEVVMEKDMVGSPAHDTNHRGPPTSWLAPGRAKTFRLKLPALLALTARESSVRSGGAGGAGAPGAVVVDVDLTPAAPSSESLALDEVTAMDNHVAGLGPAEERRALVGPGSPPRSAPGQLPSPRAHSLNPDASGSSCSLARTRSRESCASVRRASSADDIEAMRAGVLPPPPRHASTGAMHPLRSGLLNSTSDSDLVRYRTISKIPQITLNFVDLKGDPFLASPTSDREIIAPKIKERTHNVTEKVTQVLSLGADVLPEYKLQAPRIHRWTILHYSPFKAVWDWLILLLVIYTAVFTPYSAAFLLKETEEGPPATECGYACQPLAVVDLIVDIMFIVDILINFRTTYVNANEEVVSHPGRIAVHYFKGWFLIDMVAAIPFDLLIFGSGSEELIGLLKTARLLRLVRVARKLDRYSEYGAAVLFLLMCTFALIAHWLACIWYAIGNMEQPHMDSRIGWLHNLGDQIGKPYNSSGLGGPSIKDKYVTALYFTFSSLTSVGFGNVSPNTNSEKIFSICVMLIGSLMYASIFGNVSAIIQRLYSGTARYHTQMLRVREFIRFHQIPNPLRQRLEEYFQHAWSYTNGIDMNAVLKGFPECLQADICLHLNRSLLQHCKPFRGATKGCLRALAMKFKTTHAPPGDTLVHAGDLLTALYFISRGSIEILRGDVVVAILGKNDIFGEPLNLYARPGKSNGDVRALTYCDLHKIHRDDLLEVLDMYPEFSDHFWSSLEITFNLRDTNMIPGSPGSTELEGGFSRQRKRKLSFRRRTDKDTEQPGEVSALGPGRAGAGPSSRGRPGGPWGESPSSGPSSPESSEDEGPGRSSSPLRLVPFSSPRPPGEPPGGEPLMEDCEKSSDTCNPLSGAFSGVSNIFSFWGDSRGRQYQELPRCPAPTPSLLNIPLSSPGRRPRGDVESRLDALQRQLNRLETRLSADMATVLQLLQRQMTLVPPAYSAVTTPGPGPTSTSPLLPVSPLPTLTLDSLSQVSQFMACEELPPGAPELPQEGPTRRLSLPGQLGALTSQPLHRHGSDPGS

SMILES	hERG current change (%, negative = inhibition) at 1uM
O=[N+]([O-])c1ccc(Cl)c(C[n+]2cccc3ccccc32)c1.[Br-]	11.1%
CCN1/C(=C/C=C/c2sc3ccccc3[n+]2CC)Sc2ccccc21.[I-]	-36.8%
COc1ccc(C)cc1S(=O)(=O)Nc1cc2c3c(c1)C(C)C(=O)N3CCC2 (centres unmarked)	-2.09%
C=CCNC(=O)CSc1nc2sccc2c(=O)n1-c1ccccc1	12.5%
COc1ccc(CNCCc2c(C)[nH]c3ccc(OC(F)(F)F)cc23)c(OC)c1.O=C(O)C(=O)O	-6.91%
CS(=O)(=O)N(CC(=O)N1CCN(c2ccccc2)CC1)c1cccc(Br)c1	1.4%
CC(Sc1nnc(-c2ccccc2Br)n1-c1cccc(C(F)(F)F)c1)C(N)=O (centres unmarked)	1.77%
COCOc1ccc(-c2cc(=O)c3c(OCOC)cc(OCOC)cc3o2)cc1	7.39%
O=C(Nc1ccccc1OC(=O)c1ccc(Cl)cc1)c1ccc(Cl)cc1	13.4%
COC(=O)c1cc(N=C(N)N=C(N)N)cc(C(=O)OC)c1	11.1%
CCOc1ncccc1C(=O)Nc1ccc(C(=O)Nc2ccc(OC)cc2)cc1	1.87%
CC1(C)Cc2ccccc2C(=NCC(=O)O)N1	17.9%
CN(C)S(=O)(=O)c1ccc(C(=O)Nc2nnc(SCc3cccc4ccccc34)s2)cc1	1.9%
CCOC(=O)c1cnc(-n2nc(C)cc2C)nc1Oc1ccc(C#N)cc1	18.1%
COc1cccc(NC(=O)COc2ncnc3sc(C)c(C)c23)c1	12.4%
Cc1ccccc1C(=O)NCc1nnc(SCC(=O)N2CCN(c3ccccc3)CC2)n1C	12.3%
CCN(CC(=O)Nc1cc(Cl)ccc1C)C(=O)C1CCCCC1	7.25%
COc1ccccc1C(=O)NNC(=O)c1ccc(NC(=O)c2ccccc2)cc1	9.78%
O=C(N/N=C/c1cccs1)c1cccc2cc[nH]c12	1.17%
CC(=O)c1ccc(COC(=O)c2ccccc2NC(=O)C(C)C)cc1	1.01%
N/C(=N\OC(=O)c1cccc(Br)c1)c1ccncc1	10.3%
Cc1c(Br)c([N+](=O)[O-])nn1CC(=O)Nc1ccc(Cc2ccncc2)cc1	13.6%
COc1ccc(-c2noc(N3CCC(C(=O)NCc4ccc(Cl)cc4)CC3)n2)cc1	17.7%

SMILES	hERG current change (%, negative = inhibition) at 1uM
O=S(=O)(NCCc1csc(-c2cccnc2)n1)c1ccc(Cl)s1	-1.02%
O=C(c1ccc(F)cc1)N1CCOCC1	15.3%
Cc1ccc(-c2ccnc(=S)[nH]2)cc1	13.7%
COc1ccc(N2CCN(C(CNC(=O)C(=O)NCCc3c[nH]c4ccccc34)c3ccco3)CC2)cc1 (centres unmarked)	1.89%
CC(=O)c1cccc(NC(=O)c2ccc3c(c2)CCN3S(=O)(=O)c2ccccc2)c1	14.5%
CCC1Oc2ccccc2N(CC(=O)NCCCN2CCOCC2)C1=O (centres unmarked)	0.93%
Cc1cc(=O)oc(C)c1C(=O)OCC(=O)c1ccccc1	4.96%
Cc1ccc(OCC(=O)NNC(=O)CCC(=O)NCc2ccccc2)cc1	-15.1%
O=C(Cc1ccccc1)Nc1nnc(-c2cccc([N+](=O)[O-])c2)s1	9.05%
CC1CC(C)CN(C(=O)c2cc(S(=O)(=O)N3CCCCC3)ccc2Cl)C1 (centres unmarked)	-5.68%
Nc1c2c(nn1-c1ccccc1)CCC2	11%
Oc1cccc(-c2nc3ccc4ccccc4c3c3c2CCC3)c1	11.8%
CCOc1ccc(Nc2ccc3nonc3c2[N+](=O)[O-])cc1	2.23%
Cc1cccc(OCc2nn[nH]n2)c1C	11.1%
O=C(Nc1ccon1)c1ccc(Br)s1	7.09%
CCN(C(=O)c1cccc(Br)c1)c1ccccc1	6.97%
Cc1occc1-c1nnc(SCC(=O)NC2CCCC2)n1C	13.5%
Nc1ccc(-c2nnc(-c3ccccc3)o2)cc1	10.9%
Cn1c(O)c(N=Nc2cccc(S(=O)(=O)N3CCOCC3)c2)c(=O)n(C)c1=O	7.22%
COc1cccc(N=C2CC(C)(C)CC(=O)/C2=C(/O)c2ccccc2)c1	-0.794%
CCn1c(C)nc2cc(C(=O)NNC(=S)NC(=O)c3ccc(OC)cc3)ccc21	0.14%
C[C@@H]1C(NC(=O)c2ccccc2)CC2CC1C2(C)C (some centres unmarked)	8.79%
C=CCn1c(SCC(=O)Nc2ccccc2)nc2scc(-c3cccs3)c2c1=O	11%

SMILES	hERG current change (%, negative = inhibition) at 1uM
COc1ccc(S(=O)(=O)N(CCN2CCOCC2)Cc2cc(OC)ccc2OC)cc1	10.9%
Cc1ccc(C)c(NC2=C(Cl)C(=O)OC2OC(C)C)c1 (centres unmarked)	8.09%
O=C(C1CCN(S(=O)(=O)N2CCOCC2)CC1)N1CCN(Cc2ccccc2)CC1	-3.78%
O=S(=O)(NCc1ccccc1)c1ccc2c(c1)OCCO2	6.44%
O=S(=O)(c1ccc2c(c1)OCCO2)N1CCN(c2ncnc3sccc23)CC1	-1.71%
Cc1c(C(=O)NCCN(C)C)oc2ccc(S(=O)(=O)N3CCCC3)cc12	8.92%
Cc1ccc(C(O)(c2ccc(C)c(C)c2)C2CN3CCC2CC3)cc1C.Cl (centres unmarked)	-41.2%
Cc1cccc(Nc2nc(N)c([N+](=O)[O-])c(N3CCC(C)CC3)n2)c1	-0.77%
Cc1ccc(NC(=O)c2ccc(N3CCOCC3)c([N+](=O)[O-])c2)cc1S(=O)(=O)N1CCOCC1	-0.421%
CC(=O)Nc1ccc(CN2CCN(CC=C(C)C)C(CCO)C2)cc1 (centres unmarked)	12.6%
O=C(CC(Cc1ccccc1)c1ccco1)NCc1ccco1 (centres unmarked)	9.33%
COc1cc(F)ccc1S(=O)(=O)NCc1cccnc1	16.2%
CCOc1ccc2ccccc2c1/C=N/NC(=O)CC1(C)OCCCO1	11.7%
NS(=O)(=O)c1cc(C(=O)OCC(=O)Nc2ccc(N3CCCCC3)cc2)ccc1Cl	10.4%
CCN(CC)S(=O)(=O)c1cc(C(=O)c2nccn2C)ccc1Cl	13%
COc1ccccc1NC(=O)CSc1nnnn1-c1ccccc1F	6.97%
Cn1c(SCC(=O)Nc2cccc(S(=O)(=O)NC3=NCCCCC3)c2)nnc1-c1ccncc1	5.49%
CCN(CC(=O)Nc1cc(Cl)ccc1C)C(=O)CCS(=O)(=O)c1ccc(C)cc1	7.96%
CCCc1cc(=O)[nH]c(SCC(=O)c2cc(C)n(C(C)COC)c2C)n1 (centres unmarked)	3.47%
CNC(=O)Nc1nnc(C(C)(C)C)s1	13.9%
COc1cccc(N=CC2=C(O)CC(C)(C)CC2=O)c1	2.84%
Cc1ccc(-n2c(=S)sc3c(=O)n(-c4ccccc4C)c(SCC(=O)O)nc32)cc1C	15%
NCC(c1ccccc1Cl)c1c[nH]c2ccccc12 (centres unmarked)	9.03%

SMILES	hERG current change (%, negative = inhibition) at 1uM
COc1cc(=O)[nH]c(=O)n1C(=O)Cc1ccccc1	15.3%
COc1cccc(N2CC(NS(=O)(=O)c3ccc(Cl)cc3)CC2=O)c1 (centres unmarked)	7.63%
CC(CC12CC3CC(CC(C3)C1)C2)NCc1ccccc1O.Cl (centres unmarked)	19.3%
CC#CC(=O)N1CCCC(C(=O)c2ccc(SC)cc2)C1 (centres unmarked)	6.72%
CC(=Nc1ccc2c(c1)CCC2)c1c(O)n(-c2ccccc2)c(=O)[nH]c1=O	10.4%
Cc1ccccc1Nc1cc2ccccc2c(=O)[nH]1	1.06%
C=CCn1c(C)c(C(C)=O)c(N2CCCC2)nc1=S	10.8%
COc1cc(OC)cc(C(=O)NCC(=O)OCC(=O)N2CCc3ccccc32)c1	7.14%
CCCNc1nc(C)c(C(C)=O)cc1C#N	11.9%
CCN(CC)S(=O)(=O)c1ccc(NC2c3ncccc3C(=O)N2Cc2ccccc2)cc1 (centres unmarked)	-10%
S=C(NCCC(c1ccccc1)c1ccccc1)Nc1ccc(Cl)cc1	12.2%
O=C(CCn1c(=O)oc2ccccc21)Nc1nccs1	12.3%
Cc1cc(C)c(S(C)(=O)=O)c(Sc2ccc(Cl)cc2)n1	13.3%
O=C(c1cc(COc2c(F)cccc2F)on1)N1CCC(c2ccccc2F)C1 (centres unmarked)	11%
COc1ccc(/C=N/N=C/c2ccc(OC)c(O)c2)cc1O	16.1%
O=C(CN(Cc1ccco1)Cc1cccs1)N1CCN(S(=O)(=O)c2cccc(F)c2)CC1	-5.32%
CCOC(=O)N1CCN(CCC(=O)Nc2cc(C)ccc2C)CC1	18.9%
O=S(=O)(NCC1CCCO1)c1ccc(S(=O)(=O)N(Cc2ccccc2F)C2CCCCC2)cc1 (centres unmarked)	0.814%
CCn1c(=O)c(C(=O)CN2CCOCC2)c(N)n(Cc2ccccc2)c1=O	-0.674%
CC(=O)c1cccc(NC(=O)C2(c3ccccc3)CC2(Cl)Cl)c1 (centres unmarked)	0.139%
